Data taken from PMC4336329 (PLoS ONE, 2015).
The campaign covered roughly 310,000 compounds. About 14,000 (4.5%) showed an effect of 50% or more. The effect is printed as a negative number. The list shows a part of the results.

target: human ether-à-go-go-related gene (hERG) potassium channel (human, UniProt Q12809); experiment: primary screen, population patch clamp on CHO cells stably expressing hERG
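Further: peak tail current of the secondary pulse compared with the same well before compound.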

human ether-à-go-go-related gene (hERG) potassium channel, sequence (Q12809 whole entry, looked up): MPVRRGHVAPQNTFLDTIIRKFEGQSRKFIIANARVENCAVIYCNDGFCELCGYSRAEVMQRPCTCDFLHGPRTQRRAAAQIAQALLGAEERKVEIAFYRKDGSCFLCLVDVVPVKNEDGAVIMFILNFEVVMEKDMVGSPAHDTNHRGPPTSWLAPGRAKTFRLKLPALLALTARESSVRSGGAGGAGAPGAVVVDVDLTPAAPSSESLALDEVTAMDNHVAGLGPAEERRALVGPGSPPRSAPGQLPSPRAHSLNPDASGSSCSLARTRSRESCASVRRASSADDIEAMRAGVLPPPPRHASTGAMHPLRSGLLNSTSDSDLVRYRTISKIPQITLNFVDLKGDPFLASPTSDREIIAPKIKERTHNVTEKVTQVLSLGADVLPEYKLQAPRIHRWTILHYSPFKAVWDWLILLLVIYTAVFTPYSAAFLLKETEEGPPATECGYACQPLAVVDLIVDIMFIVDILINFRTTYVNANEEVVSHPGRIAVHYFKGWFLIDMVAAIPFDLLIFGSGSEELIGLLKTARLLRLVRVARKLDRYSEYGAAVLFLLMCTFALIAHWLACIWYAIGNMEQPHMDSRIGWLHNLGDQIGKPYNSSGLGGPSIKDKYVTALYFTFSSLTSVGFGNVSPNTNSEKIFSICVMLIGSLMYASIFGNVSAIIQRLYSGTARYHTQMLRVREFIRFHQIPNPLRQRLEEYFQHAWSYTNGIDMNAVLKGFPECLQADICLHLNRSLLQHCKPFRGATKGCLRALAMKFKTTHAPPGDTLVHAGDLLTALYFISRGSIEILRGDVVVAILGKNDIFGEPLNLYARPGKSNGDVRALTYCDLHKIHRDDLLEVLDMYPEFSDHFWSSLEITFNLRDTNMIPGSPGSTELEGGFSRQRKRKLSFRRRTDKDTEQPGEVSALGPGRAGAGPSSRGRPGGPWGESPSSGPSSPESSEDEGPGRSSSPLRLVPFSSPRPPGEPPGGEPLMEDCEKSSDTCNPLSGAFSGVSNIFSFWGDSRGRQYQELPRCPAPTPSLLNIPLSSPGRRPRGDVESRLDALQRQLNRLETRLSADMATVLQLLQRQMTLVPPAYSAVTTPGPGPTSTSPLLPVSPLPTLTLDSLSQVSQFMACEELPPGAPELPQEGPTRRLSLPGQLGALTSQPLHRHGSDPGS

| SMILES | hERG current change (%, negative = inhibition) at 10uM |
| --- | --- |
| CCCn1c(=O)c2ccccc2n2c(SCC(=O)Nc3cc(C)on3)nnc12 | 8.17% |
| CC(Sc1nnnn1C)C(=O)NC(=O)NC1CCCCC1 (stereo not drawn) | 8.57% |
| C=CCn1c(-c2cccc(Cl)c2)n[nH]c1=S | 13.5% |
| CCC(C)(NC(=O)c1ccccc1)C(=O)O (stereo not drawn) | 11% |
| COc1ccc(CCNC(=O)CN(c2ccccc2OC)S(C)(=O)=O)cc1OC | 5.96% |
| Cc1cc(C)nc(SCc2nnc(SCc3ccc([N+](=O)[O-])cc3)n2Cc2ccco2)n1 | -80.6% |
| Cc1c(OCC(F)(F)F)ccnc1CS(=O)c1nc2ccccc2[nH]1 (stereo not drawn) | 4.98% |
| N#CCC(=O)N/N=C/c1ccc(SCC(=O)Nc2ccccc2)o1 | 13.5% |
| O=C(O)Cn1c(SC2CCCCC2)nc2ccccc21 | 5.77% |
| COc1ccc(-n2nc(C(=O)NCC(=O)NCCCN3CC(C)CC(C)C3)c3ccccc3c2=O)cc1Cl (stereo not drawn) | -62.3% |
| CCN(CC)C(=O)C(C(=O)c1cccc([N+](=O)[O-])c1)n1cc(Cl)ccc1=O (stereo not drawn) | 24.8% |
| Cc1ccsc1C(=O)Nc1ccccc1N1CCOCC1 | -32.6% |
| Cc1cccc(NC(=O)C2CCCN2C(=O)OCc2ccccc2)c1 (stereo not drawn) | 1.6% |
| Nc1ccccc1C#Cc1ccc([N+](=O)[O-])cc1 | 1.66% |
| CCCNC(=O)C(Cc1ccccc1F)NC(=O)c1ccccn1 (stereo not drawn) | 4.67% |
| O=C(O)CCCCCN1C(=O)/C(=C\c2ccc(-c3ccc(Cl)cc3)o2)SC1=S | 18% |
| Cc1ccc(CC(=O)NNC(=O)c2ccncc2)cc1C | 21.1% |
| COC/C=C/C1=CC2=CC(=O)C(C)(OC(=O)c3cnc4ccccc4n3)C(=O)C2=CN1C1CC1 (stereo not drawn) | 7.86% |
| S=C(NCCc1ccccc1)Nc1ccc(Cl)cc1Cl | -0.477% |

| SMILES | hERG current change (%, negative = inhibition) at 10uM |
| --- | --- |
| CCCn1c(=O)c(C(=O)N/N=C/c2ccc(F)cc2)c(O)c2ccccc21 | 7.68% |
| Cc1ccc(-n2ncc3c(N4CCCC4)ncnc32)c(C)c1 | -6.38% |
| COc1ccc(OC)c(C2c3[nH]c4ccccc4c3C[C@H]3C(=O)N(C4CC4)CC(=O)N23)c1 (stereo partly drawn) | -19.2% |
| COC(=O)C1=C(c2cccc(C#N)c2)C[C@@H]2CC[C@H]1N2C(=O)N1CCc2cc(OC)c(OC)cc2C1 | -14.1% |
| O=C(O)c1cc[c]([Hg][Cl])cc1 | -18.1% |
| CSc1ccccc1NC(=O)c1cc(-c2cccnc2)nc2ccc(Br)cc12 | 13.6% |
| COc1cc(C=Nc2ccccc2C(=O)Nc2ccccc2)cc(OC)c1OC | 3.78% |
| COc1ccc(S(=O)(=O)CC(=O)c2cc(C)c(O)c(C)c2)cc1 | 5.63% |
| CCCN(CCC)c1nc2ccccc2nc1C(C#N)C(=O)OC(C)COC (stereo not drawn) | -10.2% |
| COC(=O)c1cc(Br)ccc1NC(=O)CSCc1c(C)noc1C | -5.04% |
| COc1cc(OC)cc(C(=O)N[C@H](C(=O)Nc2cccc(S(=O)(=O)N3CCCC3)c2)C(C)C)c1 | 2.47% |
| O=[N+]([O-])c1ccc(CSc2ncnc3c2ncn3[C@@H]2O[C@H](CO)[C@@H](O)[C@H]2O)cc1 | -5.61% |
| Cc1onc(-c2ccccc2Cl)c1C(=O)NCc1nnnn1-c1ccc(F)cc1 | 3.6% |
| S=C(NCc1ccc(Cl)cc1)NN1CCOCC1 | 7.92% |
| Cc1cc(C)c(NC(=O)c2ccoc2C)c(C)c1 | 3.01% |
| COC(=O)Nc1nnc(-c2ccncc2)s1 | 9.86% |
| CCOC(=O)C1CCN(C(=O)CSc2nnc(-c3ccco3)n2-c2ccccc2)CC1 | -27.8% |
| COC(=O)CCC(=O)COc1ccccc1C#N | -4.14% |
| C=Cn1c(C(=O)O)cc(CC)c1-c1ccccc1 | -0.732% |

| SMILES | hERG current change (%, negative = inhibition) at 10uM |
| --- | --- |
| O=C(Oc1ccc2c(c1)OCO2)c1ccc(Br)c(S(=O)(=O)N2CCOCC2)c1 | -9.3% |
| Cc1ccccc1-n1ccnc1SCC(=O)O | 20.9% |
| CCc1cc2c(-c3ccccc3)cc(=O)oc2cc1OC(C)C(C)=O (stereo not drawn) | 1.83% |
| Cc1ccc(C)c(S(=O)(=O)NC(CCC(N)=O)C(=O)O)c1 (stereo not drawn) | 0.0397% |
| O=C1NC(=O)/C(=C/c2ccc(N3CCOCC3)o2)N1 | 18.2% |
| COc1ccc(/C=N/NC(=O)c2ccncc2)cc1OC | 15.5% |
| C(=C\c1ccco1)/c1nc2ccccc2[nH]1 | 8.91% |
| CCCCN(CCCC)CCCNC(=O)C1CC(c2cc(C(F)(F)F)cc(C(F)(F)F)c2)=NO1 (stereo not drawn) | 3.86% |
| C=CCNC(=O)/C(=C/c1ccccc1OCC)NC(=O)c1ccccc1 | 2.63% |
| CCN(CC(=O)Nc1ccc2c(c1)OCCO2)S(=O)(=O)c1ccc(F)cc1 | 0.876% |
| O=C(NCc1ccccc1)C1=C[C@@H](c2ccc(Br)cc2)C[C@@H](OCCCCO)O1 | -36.8% |
| COc1ccc(NC(=O)C2CCCN2S(=O)(=O)c2ccc(C)cc2)cc1 (stereo not drawn) | -7.55% |
| CC(NC(=O)NCCCn1ccnc1)(C(F)(F)F)C(F)(F)F | 20% |
| CCc1ccccc1NC(=O)C1CCCN1S(=O)(=O)c1ccc2c(c1)n(C)c(=O)c(=O)n2C (stereo not drawn) | -3.91% |
| COC(=O)c1ccc(NC(=O)CSc2nc3ccccc3c(=O)[nH]2)cc1 | -6.31% |
| C=CCO/N=C/C1C(=O)CC(C)(C)CC1=O | 10.9% |
| O=C(CN1CCN(c2ccc(C(F)(F)F)cn2)CC1)NCc1ccc2c(c1)OCO2 | -65.3% |
| O=C(CSc1nc2ccccc2s1)NNC(=S)Nc1ccc(Br)cc1 | 15.8% |
| CC(C)CC(C(=O)OCC(=O)Nc1ncc(Cl)cc1Cl)N1C(=O)c2ccccc2C1=O (stereo not drawn) | -17.9% |
